In PubChem BioAssay AID1508642 (National Center for Advancing Translational Sciences (NCATS), 2021):
About 200 (0.47%) of roughly 43,000 compounds were called active. About 12% were inconclusive and are not listed. The call rests on the fitted dose curve; in most records, active means well fitted cell-killing curve with a large enough effect; inconclusive means small, poorly fitted or top-dose-only effect, or effect the other way; inactive means flat fitted curve, though single readings scatter. Some of the results follow.

Test: Cell viability qHTS assay in S16 Pmp22-F2sN cells; further: nearly all actives have a fitted effect of over 65% in size
Conditions: S16 Pmp22-F2sN Schwann cells viability, CellTiter-Glo, 24 h; series mostly up to 57.5 µM; activity change, negative = cytotoxicity: at the top concentration
Outline: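 S16 Pmp22-F2sN Schwann cells (500-1,000/well) in phenol-red-free DMEM with 10% FBS received 23 nL compound by pin tool for 24 h at 37 °C. Viability was then read as CellTiter-Glo luminescence after 15 min at room temperature.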
On the % scale 0 is the no-effect control and ±100 the full control effect.

Row | Compound | activity change, negative = cytotoxicity
1 | CCOC(=O)CCn1cnc2onc(-c3cc(OC)ccc3Cl)c2c1=O | inactive: 9.05%
2 | Cc1cccc(N2CCN(C(=O)c3cnn(-c4ccccc4Cl)c3C3CCN(C(=O)OC(C)(C)C)CC3)CC2C)c1 (centres undefined) | inactive: 2.43%
3 | COc1cccc(CNC(=O)c2ccc(CNS(=O)(=O)c3ccc(C)cc3)cc2)c1 | inactive: -1.86%
4 | CCN(c1ccccc1)S(=O)(=O)c1nnc(NC(=O)c2ccccc2)s1 | inactive: -11.9%
5 | Cc1ccc(CNC(=O)Cn2c(=O)ccc3cc(S(=O)(=O)N4CCC(C)CC4)ccc32)cc1 | inactive: -8.06%
6 | COc1ccc(-c2cc(C(=O)NC(C)c3ccccc3)c3cc(C(C)C)ccc3n2)cc1 (centres undefined) | inactive: -1.31%
7 | CCOC(=O)c1c(NC(=O)c2cc(OCC)c(OCC)c(OCC)c2)sc2c1CCCCC2 | inactive: 2.97%
8 | CCN(CC)CCNC(=O)C(=O)NCC(c1cccnc1)N1CCN(c2ccc(F)cc2)CC1 (centres undefined) | inactive: -24.6%
9 | O=C(Nc1ccccc1C(F)(F)F)c1cc(-c2ccc3c(c2)OCCO3)on1 | inactive: 6.87%
10 | COc1ccc(S(=O)(=O)NCCc2sc(-c3cccnc3)nc2C)c(F)c1 | inactive: 16.5%
11 | CCc1ccc(C2c3c(oc4ccc(F)cc4c3=O)C(=O)N2CCc2ccc(OC)cc2)cc1 (centres undefined) | inactive: 9.2%
12 | CC1CCc2c(sc3nnn(CCCCOc4ccc(Cl)cc4)c(=O)c23)C1 (centres undefined) | inactive: 11.3%
13 | COc1ccc(CNCCCSc2nnnn2-c2ccccc2)cc1 | inactive: -6.84%
14 | COc1ccc(NC(=O)CSc2oc(-c3ccc(F)cc3)nc2S(=O)(=O)c2ccc(C)cc2)c(OC)c1 | inactive: -26.7%
15 | Cc1sc2c(c1C)c(=O)n(-c1ccc(Cl)cc1)c(=O)n2Cc1cc(=O)n2cc(Br)ccc2n1 | inactive: 10.5%
16 | CCc1cccc(CC)c1NC(=O)C1CCC(CNS(=O)(=O)c2cccc3nsnc23)CC1 (centres undefined) | inactive: -5.51%
17 | COc1ccc2cc3cc(C(=O)Nc4cc(C)c(Cl)cc4OC)oc3nc2c1 | inactive: 0.967%
18 | COc1cc(NC(=O)C2CCN(S(=O)(=O)c3ccc4c(c3)CCCC(=O)N4)CC2)cc(OC)c1 | inactive: 14.7%
19 | CCOc1ccccc1NC(=O)CSc1nc2c(sc3ccccc32)c(=O)n1CCCC(=O)NC1CCCC1 | inactive: 0.213%
20 | CCc1ccc(S(=O)(=O)c2nnn3c2nc(N2CCOCC2)c2sccc23)cc1 | inactive: 2.91%

Row | Compound | activity change, negative = cytotoxicity
21 | Cc1cc(-c2ccccc2)n2nc(-c3ccc(Cl)cc3)cc2n1 | inactive: 8.03%
22 | Cc1cc(Br)ccc1NC(=O)C1CCCN(S(=O)(=O)c2cccc3nonc23)C1 (centres undefined) | inactive: 13.1%
23 | Cc1ccc(N2CC(c3nc(-c4ccc(Cl)cc4)no3)CC2=O)cc1F (centres undefined) | inactive: -0.668%
24 | Cc1cc(N2CCC(C(=O)Nc3ccc(F)cc3C)CC2)n2nc(C)c(-c3ccc(Cl)cc3)c2n1 | inactive: -3.3%
25 | CCc1ccc(NCc2cc3cc4c(cc3n(CC(=O)Nc3ccccc3OC)c2=O)OCCO4)cc1 | inactive: 6.62%
26 | Cc1cc(NC(=O)Nc2nnc(N(C)C3CCCCC3)s2)ccc1Br | inactive: 3.34%
27 | Cc1ccc2oc(C(=O)Nc3ccc(S(=O)(=O)N(C)c4ccccc4)cc3)cc(=O)c2c1 | inactive: 8.19%
28 | Cc1ccc(CNC(=O)C2CCN(S(=O)(=O)c3cccc4nonc34)CC2)cc1 | inactive: -7.46%
29 | Cc1nn(-c2ccccc2)c2c1cc1c(=O)[nH]c(=O)nc-1n2-c1cccc(Cl)c1 | inactive: 3.75%
30 | Cc1cc(=O)c2cc(C(=O)Nc3ccc(C)c(C)c3)ccc2[nH]1 | inactive: 3.95%
31 | COc1cc(Cl)c(C)cc1NC(=O)CSc1nc2c(c(=O)[nH]1)CCC2 | inactive: -3.68%
32 | CCC(Sc1nc2ccncc2[nH]1)C(=O)Nc1cc(Cl)ccc1C (centres undefined) | inactive: 0.212%
33 | O=C(c1ccc2c(c1)N(Cc1ccccc1F)C(=O)c1ccccc1S2(=O)=O)N1CCc2ccccc21 | inactive: 14.8%
34 | Cc1cccc(NC(=O)Cn2ncc3c4ccccc4n(Cc4ccccc4)c3c2=O)c1C | inactive: 13.1%
35 | Cc1ccc(S(=O)(=O)CCC(=O)Nc2ccc(OC(F)(F)F)cc2)cc1 | inactive: -17.9%
36 | COc1ccccc1CNC(=O)c1c(O)nc2c(C)cccn2c1=O | inactive: 15.2%
37 | CN(C)CCNC(=O)c1ccc2c(c1)NC(=O)C(CS(=O)(=O)Cc1cccc(Br)c1)N2 (centres undefined) | inactive: -0.901%
38 | CC1CCN(S(=O)(=O)c2ccc3c(c2)c(=O)c(C(=O)NCCc2ccccc2)cn3C)CC1 | inactive: 4.71%
39 | COc1ccccc1NC(=O)CCC(=O)N1CC(C)Oc2ccc(C)cc21 (centres undefined) | inactive: 0.228%
40 | CCc1ccc(NC(=O)C2CCCN2S(=O)(=O)c2ccc3c(c2)n(C)c(=O)c(=O)n3C)cc1 (centres undefined) | inactive: -2.25%

Row | Compound | activity change, negative = cytotoxicity
41 | COc1ccccc1CNC(=O)CN(C)c1nn2c(=O)cc(C)nc2s1 | inactive: -2.29%
42 | CC(=O)c1ccc(NC(=O)CSc2nnc3ccc(-c4ccc(Br)cc4)nn23)cc1 | inactive: 0.304%
43 | Cc1sc2ncn(CC(=O)Nc3cccc(C(F)(F)F)c3)c(=O)c2c1S(=O)(=O)N1CCN(C)CC1 | inactive: -3.22%
44 | Cc1ccc(C(=O)c2c(N)c(C(=O)Nc3ccccc3Cl)c3ccccn23)cc1 | inactive: -2.6%
45 | COC(=O)CNC(=O)C1CCN(S(=O)(=O)c2cccc3nsnc23)CC1 | inactive: -0.03%
46 | CCOc1ccc(OCC(=O)NCCS(=O)(=O)N2CCN(c3ccccc3F)CC2)cc1 | inactive: 2.33%
47 | O=C(CN1C(=O)COc2ccc(Cl)cc21)Nc1cccc(F)c1 | inactive: 2.22%
48 | CCN(CC)c1ccc2cc(-c3nc(-c4cccs4)no3)c(=O)oc2c1 | inactive: 0.0137%
49 | Cc1ccc(-n2c(=O)c3c(cnn3C)n(CC(=O)Nc3ccc(C)cc3C)c2=O)cc1 | inactive: -2%
50 | CC1=C(C(=O)Nc2ccc(C)cc2C)C(c2ccc([N+](=O)[O-])cc2)n2ncc(C(=O)Nc3ccc(F)cc3)c2N1 (centres undefined) | inactive: -15.2%
51 | CN(c1ccc(F)cc1)S(=O)(=O)N1CCCC(C(=O)NCc2cccc(Br)c2)C1 (centres undefined) | inactive: 15.6%
52 | Cc1c(C(=O)N2CCC(C)CC2)c(S(=O)(=O)NCc2ccc(Cl)cc2)c(C)n1C | inactive: -6.62%
53 | Cc1ccccc1Cc1c(C)nc2nc(SCC(=O)N(C)c3ccccc3)nn2c1C | inactive: -28%
54 | CC(C)c1ccc(NC(=O)Cn2cc(S(=O)(=O)Cc3cccc(Cl)c3)c3ccccc32)cc1 | inactive: 1.43%
55 | COc1ccc(C(=O)Nc2nc3n(n2)C(c2ccccc2)C=C(c2ccccc2)N3)cc1 (centres undefined) | inactive: -26.5%
56 | CCOC(=O)c1ccc(NC(=O)C(Cc2ccccc2)N2Cc3ccccc3C2=O)cc1 (centres undefined) | inactive: -5.42%
57 | Cc1ccc(-c2nn3c(=O)cc(CN4CCN(C(=O)/C=C/c5ccccc5)CC4)nc3s2)cc1 | inactive: -7.21%
58 | CCc1ccc(-c2cn3c(n2)sc2cc(C(=O)NCCC4=CCCCC4)ccc23)cc1 | inactive: -19%
59 | CCOC(=O)c1ccc(NC(=O)CSc2cn(CC(=O)N3CCCC3)c3ccccc23)cc1 | inactive: -18.8%
